The shares of active, inactive and inconclusive entries below differ from those in the screen. For part of these data: Potencies of inconclusive entries are doubtful fits and often do not repeat. Activity calls are given as the source filed them. Unless noted, the call rests on the fitted dose curve; in most records, active means well fitted curve in the direction sought with a large enough effect in the repeat runs; inconclusive means weak or mixed curves; inactive means no such curve, though single readings can be large; an effect the other way counts as inactive or inconclusive.
How the values were obtained:
[1] = qHTS assay to identify small molecule antagonists of the TGF-beta/Smad signaling pathway (AID 1346924; active means well fitted inhibition curve with a large enough effect in the signal ratio in the repeat runs, not every such curve was filed as active; inconclusive means weak or mixed curves; the % refers to the signal ratio); details: SBE-bla HEK293T, TGF-beta/Smad reporter, beta-lactamase ratio; activity, negative = inhibition: at 76.8 µM (top of the series) unless noted
In short: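 Read-out was FRET-substrate fluorescence (405 nm excitation; 460 and 530 nm emission) after 2 h at room temperature. Before that, cells carrying a Smad-binding-element beta-lactamase reporter in HEK 293T had been stimulated 5 h at 37 C with TGF-beta1 (0.25 ng/mL addition solution) in the presence of test compound.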

[2] = Human pregnane X receptor (PXR) small molecule agonists, qHTS cell viability counter screen (AID 1346977); further: nearly all actives have a fitted effect of over 50% in size
In short: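 In each well, the PXR reporter HepG2 line was checked for viability: CellTiter-Fluor reagent added 23hr post-dosing, fluorescence read after 1hr incubation at 37C.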

[3] = biological target: Nuclear receptor subfamily 1 group I member 2 (Homo sapiens) (UniProt O75469); experiment: Human pregnane X receptor (PXR) small molecule agonists, qHTS assay (AID 1346982); further: nearly all actives have a fitted effect of over 35% in size
Chain of UniProt O75469 (O75469 whole entry, looked up): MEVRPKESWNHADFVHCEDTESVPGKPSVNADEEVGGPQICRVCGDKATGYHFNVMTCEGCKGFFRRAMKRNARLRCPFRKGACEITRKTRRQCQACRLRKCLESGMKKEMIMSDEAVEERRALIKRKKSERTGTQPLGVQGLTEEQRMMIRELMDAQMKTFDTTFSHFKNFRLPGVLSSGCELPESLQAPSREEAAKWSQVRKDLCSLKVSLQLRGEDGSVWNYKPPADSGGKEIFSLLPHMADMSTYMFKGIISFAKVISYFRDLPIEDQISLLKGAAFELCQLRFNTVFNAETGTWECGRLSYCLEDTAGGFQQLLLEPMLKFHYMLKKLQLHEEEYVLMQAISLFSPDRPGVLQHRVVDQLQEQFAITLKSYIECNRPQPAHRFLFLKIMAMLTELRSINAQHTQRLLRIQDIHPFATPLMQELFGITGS
In short: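 After plating in 5% charcoal-stripped FBS and a 5 hr rest, PXR-Luc HepG2 cells received compounds in DMSO. Following 24 hr at 37 C, ONE-Glo was added and light output read.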

[4] = biological target: Nuclear receptor subfamily 1 group I member 2 (Rattus norvegicus) (UniProt Q9R1A7); experiment: Rat pregnane X receptor (rPXR) activation by small molecules, qHTS assay (AID 1346983); details: rPXR luciferase reporter cells, One-Glo luminescence, 24 h; max activation: active compounds read high; further: nearly all actives have a fitted effect of over 20% in size
Chain of UniProt Q9R1A7 (Q9R1A7 whole entry, looked up): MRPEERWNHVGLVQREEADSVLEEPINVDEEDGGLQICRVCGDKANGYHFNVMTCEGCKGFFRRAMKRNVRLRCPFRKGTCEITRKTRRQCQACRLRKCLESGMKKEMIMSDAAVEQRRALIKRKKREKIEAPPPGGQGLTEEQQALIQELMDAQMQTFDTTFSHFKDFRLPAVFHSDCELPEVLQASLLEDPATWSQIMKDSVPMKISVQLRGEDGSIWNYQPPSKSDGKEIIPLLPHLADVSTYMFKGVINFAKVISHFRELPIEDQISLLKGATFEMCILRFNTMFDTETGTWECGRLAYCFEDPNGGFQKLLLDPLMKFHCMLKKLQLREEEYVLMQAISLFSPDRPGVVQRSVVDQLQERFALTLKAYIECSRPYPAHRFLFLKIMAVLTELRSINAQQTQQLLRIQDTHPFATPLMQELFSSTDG
In short: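 Cell-based rPXR luciferase reporter assay, 2,000 cells per well, rested 5hr at 37 C before compound addition in DMSO, then 24 hr at 37 C. One-Glo reagent was added and luminescence read after 30 min at room temperature.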

[5] = biological target: Nuclear receptor subfamily 1 group I member 2 (Homo sapiens) (UniProt O75469); experiment: Human pregnane X receptor (PXR) activation by small molecules, qHTS assay (AID 1346985); further: nearly all actives have a fitted effect of over 40% in size
In short: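 DPX-2 cells (HepG2 co-transfected with a PXR response element and a CYP3A4-promoter luciferase construct) were seeded at 2,000 per well, rested 5 hr at 37C, then exposed to DMSO-dissolved compounds for 24 hr. Activation was read as luciferase luminescence.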

[6] = biological target: Cytochrome P450 2C9 (Homo sapiens) (UniProt P11712); experiment: Cytochrome P450 Family 2 Subfamily C Member 9 (CYP2C9) small molecule antagonists: luciferase reporter qHTS assay (AID 1671198); further: nearly all actives have a fitted effect of over 50% in size
Chain of UniProt P11712 (P11712 whole entry, looked up): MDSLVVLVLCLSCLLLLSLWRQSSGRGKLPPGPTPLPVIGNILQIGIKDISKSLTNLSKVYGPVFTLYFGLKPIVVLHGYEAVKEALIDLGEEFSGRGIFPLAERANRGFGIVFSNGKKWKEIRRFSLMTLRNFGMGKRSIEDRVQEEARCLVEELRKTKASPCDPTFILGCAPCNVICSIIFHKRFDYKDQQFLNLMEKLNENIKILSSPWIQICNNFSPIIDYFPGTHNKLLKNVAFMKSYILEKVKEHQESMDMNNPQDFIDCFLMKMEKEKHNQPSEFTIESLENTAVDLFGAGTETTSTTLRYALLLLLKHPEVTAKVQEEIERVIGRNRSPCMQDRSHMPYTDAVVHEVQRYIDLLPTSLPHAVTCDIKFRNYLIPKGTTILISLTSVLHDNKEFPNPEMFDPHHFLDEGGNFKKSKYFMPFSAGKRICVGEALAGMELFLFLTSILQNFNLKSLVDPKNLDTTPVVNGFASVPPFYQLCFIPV
In short: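 CYP2C9 activity was measured with a P450-Glo proluciferin substrate. Enzyme–substrate mix was held with compound for 10 min at room temperature, then NADPH regeneration solution was added for 1 h at 37C. Luciferin product was read as luminescence.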

[7] = biological target: Voltage-gated inwardly rectifying potassium channel KCNH2 (Homo sapiens) (UniProt Q12809); experiment: Human Ether-a-go-go-Related Gene (hERG) channel small molecule antagonists: fluorescence cell-based qHTS assay (AID 1671200); further: nearly all actives have a fitted effect of over 50% in size
Chain of UniProt Q12809 (Q12809 whole entry, looked up): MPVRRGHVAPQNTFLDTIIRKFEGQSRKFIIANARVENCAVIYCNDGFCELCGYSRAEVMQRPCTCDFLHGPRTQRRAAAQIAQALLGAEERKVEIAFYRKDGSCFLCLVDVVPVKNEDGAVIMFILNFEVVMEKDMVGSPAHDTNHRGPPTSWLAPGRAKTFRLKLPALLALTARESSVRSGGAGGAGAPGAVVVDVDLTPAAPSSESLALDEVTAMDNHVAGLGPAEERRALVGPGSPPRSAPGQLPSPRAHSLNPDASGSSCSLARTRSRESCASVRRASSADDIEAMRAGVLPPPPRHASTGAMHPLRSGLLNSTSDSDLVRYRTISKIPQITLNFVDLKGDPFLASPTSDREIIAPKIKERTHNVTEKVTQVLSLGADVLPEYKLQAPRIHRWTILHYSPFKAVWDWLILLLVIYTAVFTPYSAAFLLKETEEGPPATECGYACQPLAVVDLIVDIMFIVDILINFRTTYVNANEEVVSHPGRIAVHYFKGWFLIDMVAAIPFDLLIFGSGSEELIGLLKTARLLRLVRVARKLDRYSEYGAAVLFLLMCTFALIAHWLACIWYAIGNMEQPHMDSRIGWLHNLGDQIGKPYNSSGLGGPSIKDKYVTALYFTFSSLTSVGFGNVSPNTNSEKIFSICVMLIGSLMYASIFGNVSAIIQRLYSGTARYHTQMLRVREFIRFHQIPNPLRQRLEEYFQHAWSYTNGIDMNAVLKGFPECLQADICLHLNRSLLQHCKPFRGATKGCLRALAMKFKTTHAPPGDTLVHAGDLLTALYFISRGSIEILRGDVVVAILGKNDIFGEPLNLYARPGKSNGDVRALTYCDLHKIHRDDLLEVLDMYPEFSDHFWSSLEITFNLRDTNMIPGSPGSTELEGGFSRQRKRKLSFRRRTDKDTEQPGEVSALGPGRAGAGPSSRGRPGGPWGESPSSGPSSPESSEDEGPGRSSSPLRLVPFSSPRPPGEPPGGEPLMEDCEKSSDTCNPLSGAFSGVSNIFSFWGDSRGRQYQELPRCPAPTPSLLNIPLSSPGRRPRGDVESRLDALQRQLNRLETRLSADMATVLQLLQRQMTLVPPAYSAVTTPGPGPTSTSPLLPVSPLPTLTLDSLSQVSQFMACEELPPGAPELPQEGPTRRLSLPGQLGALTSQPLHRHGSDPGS
In short: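 In this thallium-flux screen, overnight-cultured U2OS cells bearing the channel are dye-loaded in darkness for an hour, rested 10 min at room temperature, and then monitored kinetically at 480/540 nm for two minutes post-stimulus.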

[8] = Caspase-3/7 induction in CHO-K1 cells by small molecules, qHTS cell viability counter screen (AID 1346979); further: nearly all actives have a fitted effect of over 35% in size
In short: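 Following a 5hr settling period, CHO-K1 cells at 1,500 per well received DMSO-dissolved compounds. Cell viability was quantified 16hr later by CellTiter-Fluor fluorescence, measured after 1hr with reagent at 37C.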

[9] = biological target: Cytochrome P450 2D6 (Homo sapiens) (UniProt P10635); experiment: Cytochrome P450 Family 2 Subfamily D Member 6 (CYP2D6) small molecule antagonists: luciferase reporter qHTS assay (AID 1671196); further: nearly all actives have a fitted effect of over 50% in size
Chain of UniProt P10635 (P10635 whole entry, looked up): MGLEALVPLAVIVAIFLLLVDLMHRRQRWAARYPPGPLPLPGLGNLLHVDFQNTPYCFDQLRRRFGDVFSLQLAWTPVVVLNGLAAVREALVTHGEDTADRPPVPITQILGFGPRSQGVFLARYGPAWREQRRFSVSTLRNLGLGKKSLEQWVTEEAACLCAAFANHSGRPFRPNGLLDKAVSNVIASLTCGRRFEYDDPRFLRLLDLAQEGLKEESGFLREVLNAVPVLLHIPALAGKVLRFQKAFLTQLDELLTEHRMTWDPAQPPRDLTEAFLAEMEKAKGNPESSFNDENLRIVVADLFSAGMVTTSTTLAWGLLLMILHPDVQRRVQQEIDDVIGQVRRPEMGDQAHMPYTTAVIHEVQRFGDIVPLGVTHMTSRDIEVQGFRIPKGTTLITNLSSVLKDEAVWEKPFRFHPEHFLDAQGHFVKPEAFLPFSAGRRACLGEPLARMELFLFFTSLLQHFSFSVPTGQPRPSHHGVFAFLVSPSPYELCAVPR
In short: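 Quantitative HTS of Tox21 chemicals against CYP2D6 using a luminescent proluciferin substrate. After NADPH addition, 1 h room-temperature reaction; luminescence recorded 20 min post detection reagent.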

[10] = biological target: Cytochrome P450 2C19 (Homo sapiens) (UniProt P33261); experiment: Cytochrome P450 Family 2 Subfamily C Member 19 (CYP2C19) small molecule antagonists: luciferase reporter qHTS assay (AID 1671197); further: nearly all actives have a fitted effect of over 65% in size
Chain of UniProt P33261 (P33261 whole entry, looked up): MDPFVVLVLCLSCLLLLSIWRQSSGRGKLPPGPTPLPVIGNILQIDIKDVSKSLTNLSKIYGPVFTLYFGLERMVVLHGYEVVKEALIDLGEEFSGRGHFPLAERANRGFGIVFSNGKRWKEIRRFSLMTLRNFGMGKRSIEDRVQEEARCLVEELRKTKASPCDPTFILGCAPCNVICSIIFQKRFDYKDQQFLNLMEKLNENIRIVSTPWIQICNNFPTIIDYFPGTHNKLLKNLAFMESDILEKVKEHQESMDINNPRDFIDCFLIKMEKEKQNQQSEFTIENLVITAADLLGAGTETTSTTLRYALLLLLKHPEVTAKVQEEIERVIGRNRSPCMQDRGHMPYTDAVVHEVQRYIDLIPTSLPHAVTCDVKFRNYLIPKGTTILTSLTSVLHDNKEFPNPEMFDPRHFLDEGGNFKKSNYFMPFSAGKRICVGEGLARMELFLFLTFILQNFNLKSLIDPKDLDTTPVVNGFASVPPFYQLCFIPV
In short: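 P450-Glo CYP2C19 system: enzyme-substrate mix with compound 10 min at room temperature, then NADPH regeneration solution, 1 h at 37C. Proluciferin-to-luciferin conversion detected by luminescence after 20 min with detection reagent; ketoconazole as positive control.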

[11] = biological target: Cytochrome P450 3A4 (Homo sapiens) (UniProt P08684); experiment: Cytochrome P450 Family 3 Subfamily A Member 4 (CYP3A4) small molecule antagonists: luciferase reporter qHTS assay (AID 1671201); further: nearly all actives have a fitted effect of over 50% in size
Chain of UniProt P08684 (P08684 whole entry, looked up): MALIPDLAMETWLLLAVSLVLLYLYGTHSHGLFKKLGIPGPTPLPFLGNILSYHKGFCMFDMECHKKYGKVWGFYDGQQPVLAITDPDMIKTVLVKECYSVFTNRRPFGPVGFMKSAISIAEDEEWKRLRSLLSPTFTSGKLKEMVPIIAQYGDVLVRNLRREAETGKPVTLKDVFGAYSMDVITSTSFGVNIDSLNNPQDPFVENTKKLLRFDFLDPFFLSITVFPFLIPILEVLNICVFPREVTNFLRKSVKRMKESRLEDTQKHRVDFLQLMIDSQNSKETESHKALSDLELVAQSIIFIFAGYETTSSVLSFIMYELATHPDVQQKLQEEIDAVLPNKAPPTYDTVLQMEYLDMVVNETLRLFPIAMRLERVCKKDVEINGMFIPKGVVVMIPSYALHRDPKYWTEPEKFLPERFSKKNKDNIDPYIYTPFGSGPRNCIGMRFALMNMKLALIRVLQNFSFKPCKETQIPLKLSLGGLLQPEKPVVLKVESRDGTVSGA
In short: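 CYP3A4 activity was followed with a P450-Glo proluciferin substrate. Test compounds in DMSO were preincubated 10 min; NADPH regeneration then ran 1 h, and light output was read 20 min after detection reagent.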

[12] = biological target: Cytochrome P450 1A2 (Homo sapiens) (UniProt P05177); experiment: Cytochrome P450 Family 1 Subfamily A Member 2 (CYP1A2) small molecule antagonists: luciferase reporter qHTS assay (AID 1671199); further: nearly all actives have a fitted effect of over 50% in size
Chain of UniProt P05177 (P05177 whole entry, looked up): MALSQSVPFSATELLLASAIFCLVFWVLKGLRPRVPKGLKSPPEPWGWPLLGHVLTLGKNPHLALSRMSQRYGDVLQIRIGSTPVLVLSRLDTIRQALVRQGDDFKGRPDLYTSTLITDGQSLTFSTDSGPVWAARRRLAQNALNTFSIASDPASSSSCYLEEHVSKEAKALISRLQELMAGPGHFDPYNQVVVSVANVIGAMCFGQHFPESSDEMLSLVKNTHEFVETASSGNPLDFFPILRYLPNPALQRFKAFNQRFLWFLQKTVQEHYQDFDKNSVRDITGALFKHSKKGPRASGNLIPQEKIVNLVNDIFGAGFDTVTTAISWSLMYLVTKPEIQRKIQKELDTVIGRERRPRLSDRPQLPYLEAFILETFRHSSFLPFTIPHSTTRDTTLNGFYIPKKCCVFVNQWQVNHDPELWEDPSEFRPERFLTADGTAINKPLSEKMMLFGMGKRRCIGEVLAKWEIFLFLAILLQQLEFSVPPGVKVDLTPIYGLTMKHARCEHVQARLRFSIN
In short: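 Quantitative high-throughput format using the P450-Glo CYP1A2 system. Reaction initiated by NADPH regeneration solution, 1 h at room temperature, then stopped with detection reagent; luminescence measured 20 min later.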

[13] = Caspase-3/7 induction in HepG2 cells by small molecules, qHTS cell viability counter screen (AID 1346981); further: nearly all actives have a fitted effect of over 30% in size
In short: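 The parent HepG2 line is plated at 2,000 cells per well and rested 5 hr before compound pinning from DMSO stocks. Following a 16-hr treatment at 37 C, a fluorogenic live-cell substrate (CellTiter-Fluor) reports viability after 1 hr.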
Potency means the concentration at half of the fitted maximal effect; tags describe the fitted curve by direction and shape or compound fluorescence and quenching.

With `CN1CCN(C2=Nc3ccccc3Sc3ccc(Cl)cc32)CC1` the activity, negative = inhibition [1] was inconclusive: -2.02% [at 35.3 µM], the Potency [2] was “inactive” and the Potency [3] was inconclusive: 21.1 µM [activator, partial curve]. The Potency [4] was inconclusive: 22.4 µM [activator, partial curve], the Potency [5] was active: 25.1 µM and the Potency [6] was inconclusive: 13.8 µM [inhibitor, full curve]. For the same compound, the Potency [7] was inconclusive: 19 µM [inhibitor, partial curve].

For `CCC(Cc1ccccc1)(C(=O)c1ccc(N2CCOCC2)cc1)N(C)C` (configuration not stated), the activity, negative = inhibition [1] was inconclusive: -36.4%, the Potency [2] was inconclusive: 68.6 µM [cytotoxic, single point] and the Potency [8] was inconclusive: 61.1 µM [cytotoxic, single point]. The Potency [9] was active: 7.96 µM, the Potency [10] was active: 39.9 µM and the Potency [7] was active: 13.8 µM. The Potency [11] was inconclusive: 8.94 µM [inhibitor, full curve].

For `COc1cc2c(cc1N)oc1ccccc12`, the activity, negative = inhibition [1] was inconclusive: 0.215%, the Potency [2] was inconclusive: 70.1 µM [cytotoxic, single point] and the Potency [8] was inconclusive: 70.1 µM [cytotoxic, single point]. The Potency [10] was active: 4.57 µM and the Potency [12] was active: 0.513 µM.

With `Cc1c(Cl)c(=O)oc2cc(O)ccc12` the Potency [1] was inconclusive: 43.6 µM [fluorescent, partial curve], the Potency [2] was inconclusive: 61.1 µM [rising, partial curve] and the Potency [8] was inconclusive: 61.1 µM [rising, partial curve]. The Potency [13] was inconclusive: 61.1 µM [rising, partial curve], the Potency [3] was inconclusive: 68.6 µM [activator, single point] and the Potency [10] was inconclusive: 89.4 µM [inhibitor, single point].

With `CCOC(=O)COC(=O)c1ccccc1C(=O)OCC` the activity, negative = inhibition [1] was inconclusive: 1.4% and the Potency [8] was inconclusive: 61.1 µM [rising, partial curve].
